Reference: PubChem BioAssay AID360 (National Center for Advancing Translational Sciences (NCATS), 2006)
The whole screen tested about 48,000 compounds, of which about 550 (1.1%) were called active. Inconclusive results (about 4%) are left out. Rule as the data show it: active = potency below about 15 µM; inconclusive = mostly about 16 µM to 33 µM; inactive = weaker than that. This is one part of the list.

Target: Lysosomal acid glucosylceramidase (Homo sapiens) (UniProt P04062)
Experiment: Glucocerebrosidase;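 also: the screen sought inhibitors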
Details: purified enzyme, resorufin glucoside fluorescence (screen aimed at inhibitors), 20 min
Procedure, shortened: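 Normal human glucocerebrosidase (0.2 nM final) was assayed with resorufin β-D-glucopyranoside (30 uM final) in 50mM citric acid/KH2PO4, 10mM sodium taurocholate, 0.01% tween-20, pH 5.9. Compounds were titrated; fluorescence (Ex 548, Em 600) read after 20 min at RT.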
Potency is read from the fitted curve at half-maximal effect.

Sequence of UniProt P04062 (P04062 whole entry, looked up): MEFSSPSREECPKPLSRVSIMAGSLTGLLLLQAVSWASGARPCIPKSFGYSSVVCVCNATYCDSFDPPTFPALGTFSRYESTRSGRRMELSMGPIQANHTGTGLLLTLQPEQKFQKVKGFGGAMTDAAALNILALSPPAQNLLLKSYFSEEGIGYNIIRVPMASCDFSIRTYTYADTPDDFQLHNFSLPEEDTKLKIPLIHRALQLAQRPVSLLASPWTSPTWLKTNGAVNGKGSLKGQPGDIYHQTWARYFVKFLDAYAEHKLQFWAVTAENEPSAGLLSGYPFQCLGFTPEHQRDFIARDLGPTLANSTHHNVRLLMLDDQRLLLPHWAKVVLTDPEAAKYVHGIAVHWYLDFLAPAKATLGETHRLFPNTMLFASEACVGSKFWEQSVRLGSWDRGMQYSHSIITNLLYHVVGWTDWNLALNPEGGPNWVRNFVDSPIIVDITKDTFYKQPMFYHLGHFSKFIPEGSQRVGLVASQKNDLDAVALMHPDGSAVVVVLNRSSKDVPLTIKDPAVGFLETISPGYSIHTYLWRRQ

Potency, inactive:
COc1ccc(C(=O)CSc2nnc(COc3ccccc3)n2Cc2ccco2)cc1 > 76.9 µM
Cc1cc(N2CC(=O)N(CCc3ccccc3)C(=O)C2)n2ncnc2n1 > 76.9 µM
CN(C)c1nc(Nc2ccc(Cl)cc2)nc(OCC#N)n1 > 76.9 µM
COc1ccccc1S(=O)(=O)Cc1ccc(C(=O)NCc2cccs2)o1 > 76.9 µM
O=C(CCn1c(=O)oc2ccccc21)N1CCN(C(c2ccccc2)c2ccccc2)CC1 > 76.9 µM
CC(=O)Nc1ccc(N2CCOCC2)c(C(=O)Nc2cccc(C)c2)c1 > 76.9 µM
CC(=O)c1c(C)nc2nonc2c1N > 76.9 µM
CCOC(=O)c1ccc(-c2n[nH]c(=O)c3ccccc23)cc1 > 76.9 µM
CC1CCCC(C)N1CC(O)COc1ccc(Cl)cc1 (stereo not given) > 76.9 µM
COc1ccc(S(=O)(=O)Nc2ccc(S(=O)(=O)N3CCCCC3)cc2)cc1 > 15.4 µM
Cc1ccc(S(=O)(=O)NCCC(=O)NC2CCCC2)cc1 > 76.9 µM
Cc1ccc(SCc2cc(=O)[nH]c(N3CCN(Cc4ccccc4)CC3)n2)cc1 > 76.9 µM
O=C(CN1CCN(c2ccccc2)CC1)Nc1nccs1 > 76.9 µM
O=C(OC(C(=O)NCC1CCCO1)c1ccc(F)cc1)c1ccco1 (stereo not given) > 76.9 µM
Cc1ccc(N(C(=O)Cn2nnc3ccccc32)C(C(=O)NC2CCCCC2)c2cn(C)nc2C)cc1 (stereo not given) > 76.9 µM
Cc1cc(C)cc(Nc2cc(=O)n(C3CCCCC3)c(=O)[nH]2)c1 > 76.9 µM
O=C(CSc1nnnn1-c1ccc(F)cc1)NC1CCCCC1 > 76.9 µM
CCCC(=O)Nc1cc2c(cc1C(=O)c1ccccc1)OCCO2 > 76.9 µM
O=C(NC1CCCCCC1)c1c(O)c2cccc3c2n(c1=O)CCC3 > 76.9 µM
CCOC(=O)c1ccccc1NC(=O)c1c(F)c(F)c(F)c(F)c1F > 76.9 µM
COc1ccc(OC)c2[nH]c(=O)c(CCNC(=O)c3ccc(S(=O)(=O)N(C)C)cc3)cc12 > 76.9 µM
OC12CCCCC1C(c1ccc3c(c1)OCO3)N(Cc1cccc(F)c1)CC2 (stereo not given) > 76.9 µM
CC(NC(=O)c1ccccc1NC(=O)c1ccco1)C(=O)O (stereo not given) > 76.9 µM
O=c1nc(-c2ccccc2)cn[nH]1 > 76.9 µM
COC(=O)c1ccccc1NC(=O)c1noc2c1CCC2 > 76.9 µM
